The whole screen tested about 48,000 compounds, of which about 120 (0.25%) were called active. Inconclusive results (about 4%) are left out. The call rests on the fitted dose curve; in most records, active means well fitted activation curve with a large enough effect; inconclusive means small, poorly fitted or top-dose-only effect, or another doubt; inactive means no such curve, though single readings can be large or run the other way. This is one part of the list.

This experiment is described as follows: Primary qHTS for Identification of Small Molecule Activators of Huntingtin-Antisense Promoter Activity. Further: nearly all actives have a fitted effect of over 55% in size. Particulars: HEK293 HTT-AS promoter firefly luciferase reporter (activity 0% = vehicle and -100% = no light), 24 h; series mostly up to 57.5 µM; activity change, positive = activation: at the top concentration. Put shortly:
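HEK293 luciferase promoter-reporter cells (2,500/well) plated 24 h, then compounds added at up to 57.5 uM final for 24 h at 37 °C. Firefly luminescence by Dual-Glo, normalized to vehicle (0%) and zero RLU (-100%).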
(Quantitative high-throughput screening tests each substance at several concentrations.)
With `C#C[C@]1(O)CC[C@H]2[C@@H]3[C@H](C)CC4=C(CCC(=O)C4)[C@H]3CC[C@@]21C`, the “activity change, positive = activation” value was inactive: -20.1%.

For `CCOC(=O)N1CCc2c(sc3c2c(=O)n(Cc2ccccc2)c(=O)n3Cc2ccccc2Cl)C1`, the “activity change, positive = activation” value was inactive: -10.8%.

With `Cc1ccc2ncc(C(=O)N3CCN(c4ccccc4F)CC3)c(=O)n2c1`, the “activity change, positive = activation” value is inactive: 0%.

Take `COc1cccc(NC(=O)C2CCN(c3nnc(C)c4c(C)n(-c5ccccc5)nc34)CC2)c1`: the “activity change, positive = activation” value was inactive: -23.7%.

For `Cc1ccc(S(=O)(=O)N(CC(=O)NCCc2ccc(Cl)cc2)c2ccccc2C)cc1`, the “activity change, positive = activation” value is inactive: -12.6%.

For the compound `CCc1ccc(OCC(=O)N(Cc2ccc(C)o2)C2CCS(=O)(=O)C2)cc1` (stereo unspecified), the “activity change, positive = activation” value was inactive: -12.3%.

In the case of `COc1ccc(CCNC(=O)c2cnn(-c3ccc(F)cc3)c2C2CCN(C(=O)OC(C)(C)C)CC2)c(OC)c1`, the “activity change, positive = activation” value is inactive: -26.2%.

For the compound `CCc1ccccc1NC(=O)N1CCc2c([nH]c3ccccc23)C1c1ccc(C)cc1` (stereo unspecified), the “activity change, positive = activation” value was inactive: -29.1%.

Regarding `COc1ccc(NC(=O)c2c(NC(=O)COc3ccccc3)sc3c2CCC(C)C3)cc1` (stereo unspecified), the “activity change, positive = activation” value is inactive: -7.06%.

For the compound `O=C(Nc1ccccc1C(F)(F)F)c1ccc2oc(=O)c(S(=O)(=O)c3ccc(F)cc3)cc2c1`, the “activity change, positive = activation” value was inactive: -92.9%.

With `O=C(NCCC1=CCCCC1)c1ccc2c(=O)n3nc(Nc4ccccc4)sc3nc2c1`, the “activity change, positive = activation” value is inactive: -8.13%.

As to `COCCCNC(=O)c1cn(CCOC)c(=O)c2c1c1ccccc1n2C`, the “activity change, positive = activation” value was inactive: -14.2%.

On to `COc1ccc(-c2noc(CCC(=O)Nc3ccc(C(F)(F)F)cc3)n2)cc1`, for which the “activity change, positive = activation” value was inactive: -21.9%.

As to `Cc1ccccc1CNC(=O)CN1C(=O)CSc2ccc(S(=O)(=O)N(C)C)cc21`, the “activity change, positive = activation” value is inactive: 1.01%.

For `O=C(O)COc1nn(Cc2ccccc2)c2ccccc12`, the “activity change, positive = activation” value is inactive: -2.02%.

In the case of `COc1ccc(S(=O)(=O)Nc2ccc(-c3cn4ccsc4n3)cc2)cc1C`, the “activity change, positive = activation” value was inactive: -7.3%.

In the case of `COc1ccc(CCN2C(=O)c3oc4cc(C)cc(C)c4c(=O)c3C2c2ccccc2F)cc1OC` (stereo unspecified), the “activity change, positive = activation” value is inactive: -17.9%.

As to `COc1cccc(-c2nnc(SCC(=O)NC3CCCCC3)o2)c1`, the “activity change, positive = activation” value is inactive: -14.3%.

As to `Cc1ccc(NC(=O)c2ccc(CN3C(=O)CCn4nc(C)cc43)cc2)c(Cl)c1`, the “activity change, positive = activation” value was inactive: -14.7%.

As for `CCCn1c(=O)c2sccc2n2c(CCCC(=O)Nc3ccc(Oc4ccc(Cl)cc4)cc3)nnc12`, the “activity change, positive = activation” value was inactive: -37.4%.

With `CC(=O)c1ccc(NS(=O)(=O)c2ccc(-c3cc(C)no3)s2)cc1`, the “activity change, positive = activation” value was inactive: -24.2%.

Take `CCOc1ccc(CCNC(=O)C2CCN(C(=O)c3cc4sccc4n3CC)CC2)cc1OCC`: the “activity change, positive = activation” value is inactive: -32.1%.

On to `Cc1c(NC(=O)c2cc(=O)c3ccccc3o2)c(=O)n(-c2ccccc2)n1C`, for which the “activity change, positive = activation” value is inactive: 19.4%.

In the case of `Cc1coc2c(C)c3oc(=O)c(CC(=O)NCCc4ccc(Cl)cc4)c(C)c3cc12`, the “activity change, positive = activation” value is inactive: -4.48%.

On to `C=CCc1c(C)nc2nc(SCC(=O)Nc3ccc(C)c(C)c3)nn2c1C`, for which the “activity change, positive = activation” value is inactive: -26%.

For the compound `Cc1cccc(CSc2nc(-c3cccs3)ccc2C#N)c1`, the “activity change, positive = activation” value is inactive: -31.4%.

Take `O=C(COc1ccccc1F)Nc1nnc(SCc2cc(=O)c3ccccc3[nH]2)s1`: the “activity change, positive = activation” value was inactive: -23.1%.

Turning to `OC[C@@H](O)[C@@H](O)[C@H](O)[C@@H](O)CO`, the “activity change, positive = activation” value is inactive: -4.49%.

Turning to `COc1ccc(NC(=O)C2CCCN(S(=O)(=O)c3ccc4c(c3)oc(=O)n4C)C2)c(OC)c1` (stereo unspecified), the “activity change, positive = activation” value is inactive: -31.9%.

Turning to `COc1cccc(N2CCN(C(=O)c3cccn3-c3nnc(N4CCCC4)s3)CC2)c1`, the “activity change, positive = activation” value was inactive: -5.74%.

For the compound `COCCCNC(=O)c1ccc(-n2c(-c3ccccc3)cc3c2CCC(C)C3)cc1` (stereo unspecified), the “activity change, positive = activation” value was inactive: -42.4%.

On to `CCNC(=O)c1ccc(CSc2nc3ccncc3n2Cc2ccc(F)cc2)cc1`, for which the “activity change, positive = activation” value was inactive: -18.6%.

As for `CCn1c(C(=O)NCc2cc(Br)ccc2OC)cc2oc3ccccc3c21`, the “activity change, positive = activation” value was inactive: 1.58%.

In the case of `CCN(C(=O)Cn1cnc2onc(-c3ccc(F)cc3)c2c1=O)c1cc(C)ccc1C`, the “activity change, positive = activation” value was inactive: -30%.

Take `CO[C@]12C[C@@H](COC(=O)c3cncc(Br)c3)CN(C)[C@@H]1Cc1cn(C)c3cccc2c13`: the “activity change, positive = activation” value is inactive: -0.202%.

For the compound `CCCCC(=O)O[C@]1(C(=O)CO)[C@@H](C)C[C@H]2[C@@H]3CCC4=CC(=O)C=C[C@]4(C)[C@@]3(F)[C@@H](O)C[C@@]21C`, the “activity change, positive = activation” value was inactive: -7.8%.

Regarding `Cc1ccc(NC(=O)N2CCN(c3cc(-c4noc(C)n4)ccc3C)CC2)c(C)c1`, the “activity change, positive = activation” value is inactive: -13.6%.

On to `Cc1cccc(CCNC(=O)CN(c2ccc(C(C)C)cc2)S(=O)(=O)c2c(C)nn(C)c2C)c1`, for which the “activity change, positive = activation” value was inactive: -27.5%.

On to `COc1cccc(Cc2nc3ccccc3nc2SCC(=O)NCc2ccc(C)cc2)c1`, for which the “activity change, positive = activation” value was inactive: -8.21%.

As to `CC(=O)c1ccc(NC(=O)C2CCC(CNS(=O)(=O)c3cccs3)CC2)cc1` (stereo unspecified), the “activity change, positive = activation” value was inactive: -0.422%.

For `Cc1cccc(NC(=O)Cn2c(=O)ccc3cc(S(=O)(=O)N4CCCC4)ccc32)c1C`, the “activity change, positive = activation” value is inactive: -13.4%.

On to `COc1ccc(CCNC(=O)c2ccc3c(c2)nc2n3CCC(C)C2)cc1OC` (stereo unspecified), for which the “activity change, positive = activation” value is inactive: -21.1%.

With `CCOC(=O)c1noc2nc(C)n(Cc3cccc(C#N)c3)c(=O)c12`, the “activity change, positive = activation” value was inactive: 1.55%.

`O=C(NCc1ccc(F)cc1)c1ccc2c(c1)nnn2C1CCCC1`: the “activity change, positive = activation” value was inactive: -5.84%.

`COc1ccc(N2C(=O)CS(=O)(=O)C23C(=O)N(Cc2ccc(C)cc2)c2ccccc23)cc1Cl` (stereo unspecified): the “activity change, positive = activation” value was inactive: -20.9%.

Regarding `CCOc1ccc(NC(=O)N2CCN(Cc3cc(=O)n4nc(-c5ccc(OC)cc5)sc4n3)CC2)cc1`, the “activity change, positive = activation” value was inactive: -8.99%.
